Test results: a collection of fitness landscapes (doi:10.1126/science.1257360)
Some of the results follow.

B1: PhoQ; a variant is named by its letters at X, in order, P23837 (parent)
chain: MKKLLRLFFPLSLRVRFLLATAAVVLVLSLAYGMVALIGYSVSFDKTTFRLLRGESNLFYTLAKWENNKLHVELPENIDKQSPTMTLIYDENGQLLWAQRDVPWLMKMIQPDWLKSNGFHEIEADVNDTSLLLSGDHSIQQQLQEVREDDDDAEMTHSVAVNVYPATSRMPKLTIVVVDTIPVELKSSYMVWSWFIYVLSANLLLVIPLLWVAAWWSLRPIEALAKEVRELEEHNRELLNPATTRELTSLVRNLNRLLKSERERYDKYRTTLTDLTHSLKTPLXXLQXXLRSLRSEKMSVSDAEPVMLEQISRISQQIGYYLHRASMRGGTLLSRELHPVAPLLDNLTSALNKVYQRKGVNISLDISPEISFVGEQNDFVEVMGNVLDNACKYCLEFVEISARQTDEHLYIVVEDDGPGIPLSKREVIFDRGQRVDTLRPGQGVGLAVAREITEQYEGKIVAGESMLGGARMEVIFGRQHSAPKDE

Variants of: B1
Test: enrichment ratio after two sorts for PhoP signalling (ratio (wild type AVST 3.29)); higher = more functional
Conditions: with PhoP (E. coli)

Variant | enrichment ratio
NPWK | ≤ 0.25
VKYI | ≤ 0.25
HSRP | ≤ 0.25
NICD | ≤ 0.25
PCMH | ≤ 0.25
SICA | 8.12
VPRM | ≤ 0.25
MHCW | ≤ 0.25
FCWT | ≤ 0.25
PPEN | ≤ 0.25
MTFP | ≤ 0.25
MNTY | ≤ 0.25
AHNY | ≤ 0.25
LPHH | ≤ 0.25
TWPH | ≤ 0.25
PTDS | ≤ 0.25
TKDD | ≤ 0.25
CLRY | ≤ 0.25
GKSD | ≤ 0.25
NRCG | ≤ 0.25
VAWH | ≤ 0.25
GYNK | ≤ 0.25
RHSH | ≤ 0.25
MSSN | ≤ 0.25
MPGC | ≤ 0.25
AGNK | ≤ 0.25

Variant | enrichment ratio
LSIQ | ≤ 0.25
HLHR | ≤ 0.25
FWKS | ≤ 0.25
MSTC | 1.5
SSLQ | 14.5
NMRT | ≤ 0.25
HKGE | ≤ 0.25
TTRP | ≤ 0.25
KVRG | ≤ 0.25
PPND | ≤ 0.25
FSTY | ≤ 0.25
QIVM | ≤ 0.25
MFAS | ≤ 0.25
WKPQ | ≤ 0.25
TDDM | ≤ 0.25
NFKC | ≤ 0.25
SLPA | ≤ 0.25
FKDW | ≤ 0.25
DKCY | ≤ 0.25
QSTE | ≤ 0.25
RAVI | ≤ 0.25
GFDW | ≤ 0.25
MYLE | ≤ 0.25
VLKY | ≤ 0.25
VDFT | ≤ 0.25
QPCV | ≤ 0.25

Variant | enrichment ratio
NERQ | ≤ 0.25
ISRK | ≤ 0.25
TNVT | ≤ 0.25
QCSG | 32
HIPF | ≤ 0.25
DMHI | ≤ 0.25
HIRV | ≤ 0.25
VHWL | ≤ 0.25
TCRK | ≤ 0.25
DDQG | ≤ 0.25
FFLP | ≤ 0.25
HASM | 1.23
KFTD | ≤ 0.25
MSDD | ≤ 0.25
TCPM | ≤ 0.25
EIAK | ≤ 0.25
MKTK | ≤ 0.25
DSCG | ≤ 0.25
VRMW | ≤ 0.25
TCEV | 2.64
TPHD | ≤ 0.25
MRSS | ≤ 0.25
YCSV | 1.26
PKGF | ≤ 0.25
WRCG | ≤ 0.25
DGCW | ≤ 0.25

Variant | enrichment ratio
HNSP | ≤ 0.25
YSHA | ≤ 0.25
MDML | ≤ 0.25
HKKN | ≤ 0.25
VHHR | ≤ 0.25
NIDW | ≤ 0.25
HMVE | ≤ 0.25
ESHT | ≤ 0.25
SQYV | ≤ 0.25
LEYA | ≤ 0.25
YLSG | 0.373
GHVE | ≤ 0.25
GRTA | ≤ 0.25
QNGC | 2.23
SRGL | ≤ 0.25
GPQF | ≤ 0.25
VWAN | ≤ 0.25
QYHC | ≤ 0.25
AIMT | 22.8
VWGE | ≤ 0.25
QVIM | ≤ 0.25
KAYR | ≤ 0.25
HFMI | ≤ 0.25
SIWA | ≤ 0.25
IPYK | ≤ 0.25
AYID | ≤ 0.25

Variant | enrichment ratio
YPAE | ≤ 0.25
YIAR | ≤ 0.25
SGIE | ≤ 0.25
AHDN | ≤ 0.25
RSDE | ≤ 0.25
WARK | ≤ 0.25
IEGG | ≤ 0.25
VPWK | ≤ 0.25
KEET | ≤ 0.25
EILC | ≤ 0.25
GGWQ | ≤ 0.25
SEQC | 4.73
MQIY | ≤ 0.25
LVMM | ≤ 0.25
NLYF | ≤ 0.25
PIFK | ≤ 0.25
WRES | ≤ 0.25
ANIN | ≤ 0.25
IVYV | ≤ 0.25
ASIF | 9.44
EACR | ≤ 0.25
GQFH | ≤ 0.25
ICPN | 0.417
GNRP | ≤ 0.25
NRYN | ≤ 0.25
GWNY | ≤ 0.25

Variant | enrichment ratio
ENPP | ≤ 0.25
NCHK | ≤ 0.25
AYQR | ≤ 0.25
WKGG | ≤ 0.25
KTCR | ≤ 0.25
TYCN | 3.13
IDNM | ≤ 0.25
IFVN | ≤ 0.25
GHMM | ≤ 0.25
PGHD | ≤ 0.25
WSIA | ≤ 0.25
QTPW | ≤ 0.25
YRLY | ≤ 0.25
FFEC | ≤ 0.25
WFSP | ≤ 0.25
WKGC | ≤ 0.25
YRYN | ≤ 0.25
HEYC | ≤ 0.25
DWSG | ≤ 0.25
KQVG | ≤ 0.25
WGVI | ≤ 0.25
MGEF | ≤ 0.25
EMTM | ≤ 0.25
